The whole screen tested about 230,000 compounds, of which about 3,600 (1.6%) were called active. Inconclusive means that the source gave no clear call. Such entries were picked first, then a sample of the others. The call rests on the fitted dose curve; in most records, active means well fitted inhibition curve with a large enough effect (not every such curve was filed as active); inconclusive means small, poorly fitted or top-dose-only effect, or another doubt; inactive means no such curve, though single readings can be large or run the other way. Potencies beside an inconclusive call are fits to weak or partial responses and may not hold up.
The molecules below were run against Lysine-specific demethylase 4E (Homo sapiens) (UniProt B2RXH2) (assay: qHTS Assay for Inhibitors of Human Jumonji Domain Containing 2E (JMJD2E)). Settings: JMJD2E catalytic domain, FDH-coupled NADH fluorescence (FDH is formaldehyde dehydrogenase); series mostly up to 57.1 µM.
Chain of UniProt B2RXH2 (B2RXH2 whole entry, looked up, the tested form may be a part): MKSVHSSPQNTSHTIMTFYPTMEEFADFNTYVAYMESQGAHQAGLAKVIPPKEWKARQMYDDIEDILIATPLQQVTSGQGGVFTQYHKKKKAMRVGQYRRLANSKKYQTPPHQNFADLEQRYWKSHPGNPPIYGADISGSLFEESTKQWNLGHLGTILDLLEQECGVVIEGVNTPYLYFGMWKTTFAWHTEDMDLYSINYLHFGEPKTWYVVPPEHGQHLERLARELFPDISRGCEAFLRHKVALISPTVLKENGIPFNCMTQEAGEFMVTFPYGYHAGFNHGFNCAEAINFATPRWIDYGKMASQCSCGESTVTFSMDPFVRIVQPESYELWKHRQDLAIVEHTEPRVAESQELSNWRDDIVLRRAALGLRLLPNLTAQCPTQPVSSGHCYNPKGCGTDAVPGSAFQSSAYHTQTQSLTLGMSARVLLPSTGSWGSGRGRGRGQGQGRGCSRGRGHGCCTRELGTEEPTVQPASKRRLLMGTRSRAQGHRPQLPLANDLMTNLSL
With CC1=CC(=O)OC1Cc1ccc2ccccc2n1 (stereo not given) the Potency was inconclusive: 39.8 µM [inhibitor, single point].
In the case of CS(=O)(=O)c1ccc2nc(NC(=O)c3ccc(N4CCCC4=O)cc3)sc2c1, the Potency was inconclusive: 35.5 µM [inhibitor, single point].
CCCS(=O)(=O)N1CCN(c2ccccc2F)CC1 was tested, and the Potency was inconclusive: 39.8 µM [inhibitor, single point].
With CC(C)N(Cc1nc(-c2ccccc2)no1)C(=O)c1ccc(Br)o1 the Potency was “inactive”.
In the case of Cc1ccc(CCNC(=O)C23CN(Cc4ccccc4)CC2C(c2cccc([N+](=O)[O-])c2)=NO3)cc1 (stereo not given), the Potency was “inactive”.
For Nc1c(C(=O)N/N=C/c2cccnc2)oc2nc(-c3ccccc3)cc(-c3ccco3)c12, the Potency was inconclusive: 25.1 µM [inhibitor, partial curve].
With Cc1ccc(-c2ccnc3nc(-n4cccc4)nn23)o1 the Potency was inconclusive: 11.2 µM [inhibitor, partial curve].
CCOC(=O)CSc1nc(=O)n2ccc(C)cc2n1 was tested, and the Potency was inconclusive: 39.8 µM [inhibitor, single point].
For O=C(O)CCN1C(=O)c2ccc(NC(=O)CSc3ccccc3)cc2C1=O, the Potency was “inactive”.
Cc1cccc(Nc2nc(N)c([N+](=O)[O-])c(NCc3ccccc3)n2)c1 was tested, and the Potency was “inactive”.
With Nc1nonc1-c1nc2ccccc2n1CC(=O)N/N=C\c1ccc(-c2ccc(Cl)cc2)o1 the Potency was inconclusive: 22.4 µM [inhibitor, single point].
With O=S(=O)(c1ccc(Br)s1)N1CCc2ccccc2C1 the Potency was “inactive”.
In the case of Cc1cc(Cl)c(S(=O)(=O)N2CCSCC2)cc1OCC(=O)NC1CCCCC1, the Potency was “inactive”.
In the case of CCc1ccc(OCC(=O)Nc2ccc(-c3cc4ccccc4oc3=O)c(OC)c2)cc1, the Potency was inconclusive: 28.2 µM [inhibitor, partial curve].
In the case of Cc1cc(C)c(-n2c(C)cc(/C=C3/NC(=O)NC3=O)c2C)c(C)c1, the Potency was inconclusive: 39.8 µM [inhibitor, single point].
Nc1c(N)c2ccccc2oc1=O was tested, and the Potency was inconclusive: 22.4 µM [inhibitor, partial curve].
With S=c1[nH]c(-c2ccccc2)cn1/N=C/c1cccnc1 the Potency was inconclusive: 28.2 µM [inhibitor, single point].
CCCOc1ccc(-c2cc(C(F)(F)F)c(C#N)c(SCC(=O)O)n2)cc1 was tested, and the Potency was inconclusive: 31.6 µM [inhibitor, partial curve].
With Cc1nc(N2CCC(C)CC2)c2c(C)c(C(=O)Nc3ccccc3C(F)(F)F)sc2n1 the Potency was inconclusive: 31.6 µM [inhibitor, partial curve].
CCO[C@@H]1OC(C(=O)N2CCOCC2)=C[C@H](c2coc3ccccc3c2=O)[C@H]1CCCO was tested, and the Potency was “inactive”.
For CC(=O)c1ccc2noc(-c3ccc(C)cc3)c2c1, the Potency was inconclusive: 28.2 µM [inhibitor, partial curve].
With N#CC(C#N)=NNc1ccc(S(=O)(=O)N2CCCC2)cc1 the Potency was “inactive”.
O=[N+]([O-])c1ccc(-c2ccc(/C=N/O)o2)cc1 was tested, and the Potency was “inactive”.
With Cc1ccc(S(=O)(=O)Nc2cc(C(C(=O)OC(C)C)C(=O)C(F)(F)F)c(O)c3ccccc23)c(C)c1 (stereo not given) the Potency was “inactive”.
For CN(C(=O)COC(=O)c1cc(-c2ccco2)nc2ccccc12)C1CCS(=O)(=O)C1 (stereo not given), the Potency was inconclusive: 25.1 µM [inhibitor, partial curve].
For N=c1c(C(=O)NCc2ccc(F)cc2)cc2c(=O)n3ccccc3nc2n1Cc1ccco1, the Potency was inconclusive: 28.2 µM [inhibitor, partial curve].
With CCc1nc2ccccc2c(=O)n1NC(=O)c1c(O)c2ccccc2n(CC)c1=O the Potency was inconclusive: 28.2 µM [inhibitor, single point].
In the case of O=C(CCC(=O)c1cccs1)Nc1ccc(F)c(F)c1F, the Potency was inconclusive: 39.8 µM [inhibitor, single point].
Cc1cc(Br)ccc1OCC(=O)NNC(=O)c1cnccn1 was tested, and the Potency was inconclusive: 39.8 µM [inhibitor, single point].
CCOC(=O)c1c(-c2ccc(-c3ccccc3)cc2)csc1NC(=O)c1cccc(N2C(=O)CCC2=O)c1 was tested, and the Potency was inconclusive: 35.5 µM [inhibitor, single point].
With CCOC(=O)c1cnc2ccc(Cl)cc2c1NCCN(C)C the Potency was inconclusive: 39.8 µM [inhibitor, single point].
With COCCOC(=O)c1sc(=S)n(CCOC)c1N the Potency was inconclusive: 22.4 µM [inhibitor, single point].
With Cc1ccc2[nH]c(=O)c(CN(CCCN3CCOCC3)C(=O)NC3CCCCC3)cc2c1 the Potency was inconclusive: 28.2 µM [inhibitor, single point].
With COc1ccc(Cn2c(C)ccc2C)cc1 the Potency was inconclusive: 35.5 µM [inhibitor, single point].
For O=C(CN1CCOCC1)Nc1c2c(nc3ccccc13)N(Cc1ccccc1)CC2, the Potency was inconclusive: 31.6 µM [inhibitor, partial curve].
CCNc1nc(Oc2ccc(=O)n(-c3ccccc3)n2)nc(N(C)C)n1 was tested, and the Potency was “inactive”.
With O=C(O)c1ccc(-c2ccc(/C=N/Nc3ccc([N+](=O)[O-])cc3)o2)cc1 the Potency was inconclusive: 31.6 µM [inhibitor, partial curve].
With COC(=O)c1[nH]c2ccc(C)cc2c1NC(=O)CN1CCC(C)CC1 the Potency was inconclusive: 25.1 µM [inhibitor, partial curve].
In the case of Cc1ccc(OCc2nnc(SCC(=O)CC(=O)Nc3ccccc3)o2)cc1, the Potency was inconclusive: 39.8 µM [inhibitor, single point].
For Cc1ccc(S(=O)(=O)N(C)CC(=O)OCC(=O)NC(=O)NC(C)C)cc1, the Potency was “inactive”.
With CN(C)c1cc(NC(=O)CN2CCOCC2)c2ccccc2n1 the Potency was inconclusive: 28.2 µM [inhibitor, partial curve].
For Cc1ccc(NC(=O)Nc2ncccc2C)cc1, the Potency was inconclusive: 39.8 µM [inhibitor, single point].
With Cc1cc(C)cc(NC(=S)/C(=C(\[O-])c2ccc(Cl)s2)[n+]2cccc(C)c2)c1 the Potency was inconclusive: 39.8 µM [inhibitor, single point].
With COc1ccc(NC(=S)Nc2ccc(OC)cc2OC)c(OC)c1 the Potency was “inactive”.
With Cc1cc(C)c2c(=O)[nH]c(SCC(=O)NCc3ccccc3)nc2n1 the Potency was inconclusive: 28.2 µM [inhibitor, single point].
Cc1ccc2[nH]c3c(NCCCN4CCCC4=O)ncnc3c2c1 was tested, and the Potency was inconclusive: 31.6 µM [inhibitor, partial curve].
COc1cccc(=O)c2c(C)n(-c3ccc(C(=O)O)cc3)c(C)c12 was tested, and the Potency was inconclusive: 35.5 µM [inhibitor, single point].
In the case of O=C(Cn1nc(C(=O)O)c2ccccc2c1=O)Nc1ccc2c(c1)C(=O)c1ccccc1C2=O, the Potency was “inactive”.
For CC(=O)N1CCN=C1SCc1ccccc1, the Potency was inconclusive: 22.4 µM [inhibitor, single point].
In the case of CCCC1OC23CCCCC2C(C#N)(C(=N)O3)C1(C#N)C#N (stereo not given), the Potency was inconclusive: 28.2 µM [inhibitor, partial curve].
In the case of Cc1cc(C)n2cc(CSc3ncn[nH]3)nc2n1, the Potency was inconclusive: 28.2 µM [inhibitor, partial curve].
With CC1NC(=O)NC1CCCCCC(=O)NCCc1ccccc1 (stereo not given) the Potency was “inactive”.
For COc1ccc(C2C3=C(N=C4SCC(=O)N42)c2ccccc2CC3)cc1 (stereo not given), the Potency was inconclusive: 28.2 µM [inhibitor, single point].
In the case of COc1ccccc1-c1nn2c(=O)cc(C)nc2s1, the Potency was inconclusive: 5.01 µM [inhibitor, full curve, poor fit].
With Cc1nc2cc(-c3ccc(Cl)cc3)nn2c(C)c1CCC(=O)NCc1ccco1 the Potency was inconclusive: 28.2 µM [inhibitor, partial curve].
CC(=S)c1c(C)cc2cc(C)ccn12 was tested, and the Potency was inconclusive: 25.1 µM [inhibitor, single point].
For O=C(O)c1ccccc1NCc1ccco1, the Potency was inconclusive: 25.1 µM [inhibitor, partial curve].
COC(=O)Nc1nn(-c2ccc(OC)cc2)c(=O)c(C#N)c1C was tested, and the Potency was “inactive”.
Cc1cccn2c(=O)c(C=Nc3ccc(Cl)cc3)c(NCCO)nc12 was tested, and the Potency was inconclusive: 28.2 µM [inhibitor, partial curve].
With COc1ccc2[nH]c(C(=O)NCCN3CCOCC3)cc2c1 the Potency was inconclusive: 31.6 µM [inhibitor, partial curve].
In the case of Cc1ccccc1OCCCC(=O)Nc1ccc(N2CCOCC2)cc1, the Potency was “inactive”.
Cc1nc(NCc2ccccc2)c2nc(-c3ccccc3)n(CC(C)(C)CN(C)C)c2n1 was tested, and the Potency was inconclusive: 28.2 µM [inhibitor, partial curve].
With Cc1ccc(-c2cc(C(=O)N3CCCC3)no2)cc1 the Potency was “inactive”.
For Cc1cc(S(=O)(=O)N2CCCOC2CNC(=O)C(=O)NCc2ccco2)ccc1F (stereo not given), the Potency was “inactive”.
For Cc1nc2c(c3c1[nH]c1ccccc13)C(=O)CC(C)(C)C2, the Potency was inconclusive: 3.55 µM [inhibitor, partial curve].
In the case of Cc1cc(=O)n2c(n1)NC(=NCc1ccccc1)NC2c1ccccc1 (stereo not given), the Potency was inconclusive: 39.8 µM [inhibitor, single point].
For Cc1cc(C)c2nc(N3CCCC3)c(C#N)cc2c1, the Potency was inconclusive: 22.4 µM [inhibitor, partial curve].
O=C1CSc2ccccc2N1Cc1ccccc1F was tested, and the Potency was “inactive”.
With Cc1ccc(OCCn2c(=O)cnc3ccccc32)cc1 the Potency was inconclusive: 31.6 µM [inhibitor, partial curve].
With CC1=CC2CC1C1C(=O)N(c3ccc(S(=O)(=O)Nc4nc(C)cc(C)n4)cc3)C(=O)C21 (stereo not given) the Potency was inconclusive: 25.1 µM [inhibitor, partial curve].
Further: nearly all actives have a fitted effect of over 50% in size.
Potency means the concentration at half of the fitted maximal effect; tags describe the fitted curve by direction and shape.
